The full ranking holds about 33,000 sequences; the median of “E-score (-0.5 to 0.5)” is about -0.013, and the highest 2% start at about 0.3. The list shows a part of the results.

In this assay the target is T1, Msn1 (UniProt P22148).
T1 sequence: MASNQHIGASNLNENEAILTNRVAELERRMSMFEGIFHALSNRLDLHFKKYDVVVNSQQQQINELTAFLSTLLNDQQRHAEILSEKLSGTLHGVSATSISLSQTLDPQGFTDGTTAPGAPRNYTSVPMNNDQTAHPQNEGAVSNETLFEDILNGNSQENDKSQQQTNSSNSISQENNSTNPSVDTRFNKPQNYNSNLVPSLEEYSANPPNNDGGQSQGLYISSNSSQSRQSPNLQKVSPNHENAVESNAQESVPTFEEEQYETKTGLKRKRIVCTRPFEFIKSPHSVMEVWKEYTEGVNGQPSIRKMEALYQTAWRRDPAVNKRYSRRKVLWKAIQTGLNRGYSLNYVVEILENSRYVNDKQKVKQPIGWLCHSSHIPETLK
The assay can be described thus: PBM E-score (8-mer binding enrichment) (E-score (-0.5 to 0.5)); higher = stronger / more preferred TF binding; most listed sequences are background and not binding sites. The note with it: protein concentration: 200 nM; construct: GST-full length. As for the experimental part: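 Universal 'all 10-mer' protein binding microarrays (Agilent AMADID 015681) probed with GST-tagged S. cerevisiae TFs (full-length or DBD) made by in vitro transcription/translation (PURExpress), about 100-200 nM. Bound TF was detected with fluorescent anti-GST. Each ungapped 8-mer (which stands for itself and its reverse complement) is scored by the PBM enrichment score (E-score), a modified Wilcoxon-Mann-Whitney statistic from -0.5 to +0.5, computed with the Universal PBM Analysis Suite. Scale: above 0.35 generally sequence-specific binding.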
For the sequence CAATTAGG, the “PBM E-score” value is 0.0526.

Turning to ATCGGCCG, the “PBM E-score” value is -0.0299.

For the sequence CACCTATA, the “PBM E-score” value came to 3e-05.

AGACGTCG: the “PBM E-score” value is -0.115.

For GACGGTAA, the “PBM E-score” value came to 0.0175.

Take CAGCCTTC: the “PBM E-score” value was -0.31.

Take AGTCCCGC: the “PBM E-score” value is -0.0107.

Take ACGTTGGA: the “PBM E-score” value is -0.128.

As to GTACTGGA, the “PBM E-score” value was found to be 0.239.

Take AAGCTGTC: the “PBM E-score” value is -0.241.

Turning to GAGTCTGC, the “PBM E-score” value is -0.176.

Regarding GAACGTAA, the “PBM E-score” value came to 0.0922.

CCCTAACA: the “PBM E-score” value was -0.00569.

Consider AGGGACGC, for which the “PBM E-score” value was -0.0191.

On to ACCTGCGC, for which the “PBM E-score” value was -0.279.

AGGCATCG: the “PBM E-score” value was -0.148.

As for CCAAGTAC, the “PBM E-score” value was -0.0511.

Regarding AGGCCCTC, the “PBM E-score” value was -0.234.

Consider AACGAGAT, for which the “PBM E-score” value is -0.0153.

With GATTCTCA, the “PBM E-score” value is 0.00787.

In the case of AGAACGTC, the “PBM E-score” value is 0.0864.

Regarding GGCTTACC, the “PBM E-score” value is -0.234.

AAAACACT: the “PBM E-score” value worked out at 0.122.

Regarding CTTCACTC, the “PBM E-score” value was -0.159.

For the sequence CGTTAAGC, the “PBM E-score” value stood at 0.133.

For the sequence AAAACGCC, the “PBM E-score” value worked out at 0.045.

For the sequence GAGGGCCA, the “PBM E-score” value is -0.104.

Consider ACCTCTTC, for which the “PBM E-score” value came to 0.0198.

On to GCTATCTA, for which the “PBM E-score” value is -0.126.

Regarding CTGTTGCA, the “PBM E-score” value is -0.11.

For the sequence AGACTGGC, the “PBM E-score” value is -0.236.

Regarding CATCGTTA, the “PBM E-score” value is -0.0369.

Take GACCTCAC: the “PBM E-score” value was -0.0299.

Regarding CATTGTGG, the “PBM E-score” value was 0.0659.

For the sequence ATTCATTA, the “PBM E-score” value stood at 0.212.

With TCCCAGCA, the “PBM E-score” value is 0.131.

Turning to CGGTATAA, the “PBM E-score” value worked out at 0.0639.

In the case of AGGCCTAC, the “PBM E-score” value is -0.0353.

Consider CGGTTAAC, for which the “PBM E-score” value was -0.274.

As to ATATCCTG, the “PBM E-score” value came out at 0.0176.

For the sequence AACAGATT, the “PBM E-score” value was found to be 0.0347.

In the case of AAGCCGTG, the “PBM E-score” value is -0.0765.

On to CGGGTTTC, for which the “PBM E-score” value amounted to 0.0761.

For CGCCTCGC, the “PBM E-score” value was -0.168.

As for CGCCCGTA, the “PBM E-score” value is -0.0328.

As for ATTTATAG, the “PBM E-score” value worked out at 0.0981.

Turning to AATGATCG, the “PBM E-score” value is -0.132.

AGCTTGTC: the “PBM E-score” value is 0.168.

Consider ACCACGAG, for which the “PBM E-score” value stood at 0.0543.

With GCACGGCC, the “PBM E-score” value was -0.144.

For ATGGGACA, the “PBM E-score” value was 0.429.

Turning to CATTAGAA, the “PBM E-score” value turned out to be 0.17.

On to ACTTACTC, for which the “PBM E-score” value is -0.0652.

For the sequence ACTATGAT, the “PBM E-score” value is -0.0735.

In the case of ACATTAGC, the “PBM E-score” value was found to be 0.147.

Take CATAAGTA: the “PBM E-score” value turned out to be 0.0662.

CAAACTGA: the “PBM E-score” value came to 0.0169.

For the sequence AATGGTAA, the “PBM E-score” value came to 0.142.

As to GAAATAAA, the “PBM E-score” value is 0.0577.

CGCCTGAG: the “PBM E-score” value was found to be 0.00251.

Turning to ACACACCT, the “PBM E-score” value stood at 0.0978.

Regarding CGACCGCG, the “PBM E-score” value is -0.0918.

Take CGGACGCA: the “PBM E-score” value was 0.0711.

For the sequence ATATTACG, the “PBM E-score” value stood at 0.153.

CCACCCCA: the “PBM E-score” value is -0.189.

Turning to GTGTGCAA, the “PBM E-score” value was -0.0418.

On to ACGATGAG, for which the “PBM E-score” value amounted to 0.0593.

In the case of CGATCACA, the “PBM E-score” value worked out at 0.165.

In the case of GAGACATA, the “PBM E-score” value is 0.448.

With GCATTCAA, the “PBM E-score” value is -0.239.

In the case of CCCTAATA, the “PBM E-score” value was determined as 0.0635.

On to GCTGTTGA, for which the “PBM E-score” value is -0.0159.

As for CGTTCTAG, the “PBM E-score” value stood at 0.0924.

In the case of CTAGACAG, the “PBM E-score” value was determined as 0.00829.

With CTCGAAAG, the “PBM E-score” value was -0.156.

For ACTCCCAA, the “PBM E-score” value is -0.0401.

Regarding ACTAGTAC, the “PBM E-score” value was found to be 0.21.

GAGACCAA: the “PBM E-score” value was 0.068.

Consider CTACAGCA, for which the “PBM E-score” value was -0.109.

As for CAATGACA, the “PBM E-score” value amounted to 0.298.

With GATCTTCA, the “PBM E-score” value stood at 0.0348.

Regarding ACTAAAAA, the “PBM E-score” value came to 0.309.

Take GCCTTTTA: the “PBM E-score” value was 0.0668.

Take AATTAAGA: the “PBM E-score” value is 0.14.

On to GATGGCGA, for which the “PBM E-score” value was 0.048.

Consider AGAATACA, for which the “PBM E-score” value is 0.149.

Source of the values: the supplement of paper PMC3334620.
